# Test results reported in the supplement of paper PMC8728848.
# This is one part of the list.
# Experiments:
# Test in all cases: glycan array binding signal (z-score within array); higher = stronger binding
# Settings in all cases: glycan notation: IUPAC condensed, linker removed
# Fuc(a1-2)Gal = biological target: Fuc(a1-2)Gal
# Outline: (§1)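 From the Consortium for Functional Glycomics database, 3228 arrays were curated, keeping only those whose protein sequence was available. Binding is given as a within-array Z-score averaged across arrays sharing a protein sequence and across linkers. Negative Z-scores can be read as non-binding.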
# Fuc(a1-2)Gal(b1-3)GalNAc = biological target: Fuc(a1-2)Gal(b1-3)GalNAc
# Outline: as §1
# [1] = biological target: Fuc(a1-2)Gal(b1-3)GalNAc(a1-3)[Fuc(a1-2)]Gal(b1-4)Glc
# Outline: as §1
# [2] = biological target: Fuc(a1-2)Gal(b1-3)GalNAc(a1-3)[Fuc(a1-2)]Gal(b1-4)GlcNAc
# Outline: as §1
# [3] = biological target: Fuc(a1-2)Gal(b1-3)GalNAc(b1-3)Gal
# Outline: as §1
# [4] = biological target: Fuc(a1-2)Gal(b1-3)GalNAc(b1-3)Gal(a1-4)Gal(b1-4)Glc
# Outline: as §1
# [5] = biological target: Fuc(a1-2)Gal(b1-3)GalNAc(b1-4)[Neu5Ac(a2-3)]Gal(b1-4)Glc
# Outline: as §1
# Fuc(a1-2)Gal(b1-3)GlcNAc = biological target: Fuc(a1-2)Gal(b1-3)GlcNAc
# Outline: as §1
# [6] = biological target: Fuc(a1-2)Gal(b1-3)GlcNAc(b1-2)Man(a1-3)[Fuc(a1-2)Gal(b1-3)GlcNAc(b1-2)Man(a1-6)]Man(b1-4)GlcNAc(b1-4)GlcNAc
# Outline: as §1
# [7] = biological target: Fuc(a1-2)Gal(b1-3)GlcNAc(b1-2)Man(a1-3)[Fuc(a1-2)Gal(b1-3)GlcNAc(b1-2)Man(a1-6)]Man(b1-4)GlcNAc(b1-4)[Fuc(a1-6)]GlcNAc
# Outline: as §1
# [8] = biological target: Fuc(a1-2)Gal(b1-3)GlcNAc(b1-3)Gal(b1-4)Glc
# Outline: as §1
# [9] = biological target: Fuc(a1-2)Gal(b1-3)GlcNAc(b1-3)GalNAc
# Outline: as §1
# [10] = biological target: Fuc(a1-2)Gal(b1-3)GlcNAc(b1-3)[Fuc(a1-3)[Gal(b1-4)]GlcNAc(b1-6)]Gal(b1-4)Glc
# Outline: as §1
# [11] = biological target: Fuc(a1-2)Gal(b1-3)GlcNAc(b1-3)[Gal(b1-4)GlcNAc(b1-6)]Gal(b1-4)Glc
# Outline: as §1
# [12] = biological target: Fuc(a1-2)Gal(b1-3)GlcNAc(b1-3)[Neu5Ac(a2-6)Gal(b1-4)GlcNAc(b1-6)]Gal(b1-4)Glc
# Outline: as §1
# [13] = biological target: Fuc(a1-2)Gal(b1-3)[Fuc(a1-4)]GlcNAc
# Outline: as §1
# [14] = biological target: Fuc(a1-2)Gal(b1-3)[Fuc(a1-4)]GlcNAc(b1-2)Man(a1-3)[Fuc(a1-2)Gal(b1-3)[Fuc(a1-4)]GlcNAc(b1-2)Man(a1-6)]Man(b1-4)GlcNAc(b1-4)GlcNAc
# Outline: as §1
# [15] = biological target: Fuc(a1-2)Gal(b1-3)[Fuc(a1-4)]GlcNAc(b1-3)[Fuc(a1-3)[Gal(b1-4)]GlcNAc(b1-6)]Gal(b1-4)Glc
# Outline: as §1
# [16] = biological target: Fuc(a1-2)Gal(b1-3)[Fuc(a1-4)]GlcNAc(b1-3)[Gal(b1-4)GlcNAc(b1-6)]Gal(b1-4)Glc
# Outline: as §1
# Fuc(a1-2)Gal(b1-4)Glc = biological target: Fuc(a1-2)Gal(b1-4)Glc
# Outline: as §1
# Fuc(a1-2)Gal(b1-4)Glc6S = biological target: Fuc(a1-2)Gal(b1-4)Glc6S
# Outline: as §1
# Fuc(a1-2)Gal(b1-4)GlcNAc = biological target: Fuc(a1-2)Gal(b1-4)GlcNAc
# Outline: as §1
# [17] = biological target: Fuc(a1-2)Gal(b1-4)GlcNAc(b1-2)Man(a1-3)[Fuc(a1-2)Gal(b1-4)GlcNAc(b1-2)Man(a1-6)]Man(b1-4)GlcNAc(b1-4)GlcNAc
# Outline: as §1
# [18] = biological target: Fuc(a1-2)Gal(b1-4)GlcNAc(b1-2)Man(a1-3)[Fuc(a1-2)Gal(b1-4)GlcNAc(b1-2)Man(a1-6)]Man(b1-4)GlcNAc(b1-4)[Fuc(a1-6)]GlcNAc
# Outline: as §1
# [19] = biological target: Fuc(a1-2)Gal(b1-4)GlcNAc(b1-2)[Fuc(a1-2)Gal(b1-4)GlcNAc(b1-4)]Man(a1-3)[Fuc(a1-2)Gal(b1-4)GlcNAc(b1-2)Man(a1-6)]Man(b1-4)GlcNAc(b1-4)GlcNAc
# Outline: as §1
# [20] = biological target: Fuc(a1-2)Gal(b1-4)GlcNAc(b1-3)Gal(b1-4)GlcNAc
# Outline: as §1
# [21] = biological target: Fuc(a1-2)Gal(b1-4)GlcNAc(b1-3)Gal(b1-4)GlcNAc(b1-3)Gal(b1-4)GlcNAc
# Outline: as §1
# [22] = biological target: Fuc(a1-2)Gal(b1-4)GlcNAc(b1-3)GalNAc
# Outline: as §1
# [23] = biological target: Fuc(a1-2)Gal(b1-4)GlcNAc(b1-3)[Fuc(a1-2)Gal(b1-4)GlcNAc(b1-6)]GalNAc
# Outline: as §1
# [24] = biological target: Fuc(a1-2)Gal(b1-4)GlcNAc6S
# Outline: as §1
binder,measurement,setting,value
SCA (Schizophyllum commune) (protein) MGIDQGVYLITNAGSGTAATLKDGYVKGWERIKGKEQLNQLWFVKSVKTSASDPGYAAFNLATNKVLDLEKGLADRGTPILGWDYHEGDNQHWVIKKQADGKYYKIQSVKTQTFVDLNNGGKDNGTKIQGWVGSWDETNSHQRWVFNQFSATGSRIKSILDTHPKIHGKVIVEWPDRIYFTPDQYIFEAIWAKTGLADIKPRDPLFQSEAYEKVFKGWVVSRAQEIIKVDGFDILVGSLSLVEKSTQKIKVLDVSVRTSDDKSPDLSQIVFFDPESGRTLVDIPEGYEVNSVII,glycan array binding signal (z-score),Fuc(a1-2)Gal,-0.159
same,glycan array binding signal (z-score),Fuc(a1-2)Gal(b1-3)GalNAc,-0.163
same,glycan array binding signal (z-score),[1],-0.159
same,glycan array binding signal (z-score),[2],-0.161
same,glycan array binding signal (z-score),[3],-0.162
same,glycan array binding signal (z-score),[4],-0.162
same,glycan array binding signal (z-score),[5],-0.162
same,glycan array binding signal (z-score),Fuc(a1-2)Gal(b1-3)GlcNAc,-0.151
same,glycan array binding signal (z-score),[6],-0.158
same,glycan array binding signal (z-score),[7],-0.157
same,glycan array binding signal (z-score),[8],-0.135
same,glycan array binding signal (z-score),[9],-0.157
same,glycan array binding signal (z-score),[10],-0.157
same,glycan array binding signal (z-score),[11],-0.16
same,glycan array binding signal (z-score),[12],-0.139
same,glycan array binding signal (z-score),[13],-0.163
same,glycan array binding signal (z-score),[14],-0.161
same,glycan array binding signal (z-score),[15],-0.164
same,glycan array binding signal (z-score),[16],-0.062
same,glycan array binding signal (z-score),Fuc(a1-2)Gal(b1-4)Glc,-0.153
same,glycan array binding signal (z-score),Fuc(a1-2)Gal(b1-4)Glc6S,-0.16
same,glycan array binding signal (z-score),Fuc(a1-2)Gal(b1-4)GlcNAc,-0.158
same,glycan array binding signal (z-score),[17],-0.158
same,glycan array binding signal (z-score),[18],-0.16
same,glycan array binding signal (z-score),[19],-0.156
same,glycan array binding signal (z-score),[20],-0.16
same,glycan array binding signal (z-score),[21],-0.161
same,glycan array binding signal (z-score),[22],-0.159
same,glycan array binding signal (z-score),[23],0.327
same,glycan array binding signal (z-score),[24],-0.148
